# Some of the results follow.
# Molecular target: no compound (DMSO)
# Assay: log2 fold change of degron read counts, EGFP-low vs EGFP+ sorted cells; higher = lower degron-EGFP level without compound (poor expression or instability)
# Conditions: compound: DMSO control; 18 h
# 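Further: jurkat cells carrying a lentiviral library of mutant zinc finger degrons fused to EGFP plus mCherry, mCherry+ cells FACS sorted, degron abundance counted by next-generation sequencing.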
row,Sequence,log2 fold change of degron read counts
1,FRCDVCGAQFTQKGNLLRHIKL,-2.33
2,LTCPICGFNCTQKGNLLRHIKL,0.657
3,FMCEICGHAFTQKGNLLRHIKL,-1.48
4,FMCPICGRLFTQKGNLLRHIKL,0.65
5,FLCDVCGAKFTQKGNLLRHIKL,-1.68
6,FSCNQCGHIFTQKGNLLRHIKL,0.442
7,FVCPICGHVFTQKGNLLRHIKL,-0.284
8,FTCNQCGAVFTQKGNLLRHIKL,-1.12
9,FECEICGAMFTQKGNLLRHIKL,-1.62
10,FSCDVCGAYFTQKGNLLRHIKL,-1.1
11,FQCPICGRQFTQKGNLLRHIKL,0.227
12,FNCNVCGATFTQKGNLLRHIKL,-1.4
13,LDCEICGFVCTQKGNLLRHIKL,1.02
14,LDCPICGFRCTQKGNLLRHIKL,0.479
15,FYCPICGRNFTQKGNLLRHIKL,-1.61
16,FSCSVCGHDFTQKGNLLRHIKL,-0.75

row,Sequence,log2 fold change of degron read counts
1,FYCEICGHHFTQKGNLLRHIKL,-0.526
2,LACNQCGFMCTQKGNLLRHIKL,0.0618
3,FCCPVCGAQFTQKGNLLRHIKL,-0.106
4,FRCNICGAAFTQKGNLLRHIKL,-0.0337
5,FCCDVCGATFTQKGNLLRHIKL,-2.02
6,FMCEVCGAPFTQKGNLLRHIKL,-0.836
7,FWCNQCGAWFTQKGNLLRHIKL,1.75
8,FWCEQCGAYFTQKGNLLRHIKL,0.103
9,FICPICGRKFTQKGNLLRHIKL,-0.8
10,FQCDQCGASFTQKGNLLRHIKL,-2.69
11,FKCNQCGRCFTQKGNLLRHIKL,-1.15
12,FDCNICGAGFTQKGNLLRHIKL,-0.605
13,FECNVCGARFTQKGNLLRHIKL,-0.862
14,FCCNVCGAWFTQKGNLLRHIKL,0.446
15,FWCEVCGAMFTQKGNLLRHIKL,-0.687
16,FKCEICGHIFTQKGNLLRHIKL,-1.37

# — the supplement of paper PMC12645437, “Orthogonal IMiD-Degron Pairs Induce Selective Protein Degradation in Cells” (ACS Chemical Biology, 2025)
